Changes are numbered by the printed parent chain. Names and notes keep the numbering of the source. ± gives the standard deviation of the averaged measurements. Laboratory Escherichia coli strains with one amino-acid change in an essential protein, pooled on minimal glucose agar with carbenicillin or gentamicin at twice the control MIC (plus kanamycin and chloramphenicol for the plasmids), 48 h. Fold change of barcode share against drug-free plates; higher = less susceptible. Active = above 20 in both replicates (the paper's putatively resistant). '<' = one read or none on drug, '>' = one read or none on a drug-free plate. Shares are relative, so most strains fall below 1 when a few take over. Listed are strains with at least 15 reads on both drug-free plates, and hits; most hits rest on fewer reference reads. Replicate rank correlation about 0.5. Edits are read from barcodes.
B1: nadD V131D (protein)
chain: MKSLQALFGGTFDPVHYGHLKPVETLANLIGLTRVTIIPNNVPPHRPQPEANSVQRKHMLELAIADKPLFTLDERELKRNAPSYTAQTLKEWRQEQGPDVPLAFIIGQDSLLTFPTWYEYETILDNAHLIDCRRPGYPLEMAQPQYQQWLEDHLTHNPEDLHLQPAGKIYLAETPWFNISATIIRERLQNGESCEDLLPEPVLTYINQQGLYR
B2: nadD L198D (protein)
chain: B1 chain with D131V, L198D
B3: nadD V202D (protein)
chain: B1 chain with D131V, V202D
B4: nadD V202W (protein)
chain: B1 chain with D131V, V202W
B5: nadD V202A (protein)
chain: B1 chain with D131V, V202A
B6: nadD L198A (protein)
chain: B1 chain with D131V, L198A
B7: nadD V202Q (protein)
chain: B1 chain with D131V, V202Q
B8: nadD L198P (protein)
chain: B1 chain with D131V, L198P
B9: nadD V131P (protein)
chain: B1 chain with D131P
B10: nadD L198Q (protein)
chain: B1 chain with D131V, L198Q

Molecular target: Escherichia coli (laboratory strain)
Assay: barcode share on antibiotic plates over drug-free plates; higher = less susceptible
Details: antibiotic: carbenicillin; 2× MIC (3.1 µg/mL)
Protocol: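 A pool of E. coli strains, each edited to carry one amino-acid change in an essential protein, was grown for 48 h on minimal glucose agar with or without antibiotic; strain barcodes were sequenced; mean of two replicates.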

Protein	fold change of barcode share
B1	0.382 ± 0.042
B2	0.538 ± 0.19
B3	0.25 ± 0.067
B4	0.478 ± 0.0092
B5	0.299 ± 0.072
B6	0.328 ± 0.15
B7	0.227 ± 0.05
B8	0.463 ± 0.06
B9	0.333 ± 0.0097
B10	0.469 ± 0.0074

Same assay, conditions: antibiotic: gentamicin; 2× MIC (MIC 0.45 µg/mL)

Protein	fold change of barcode share
B1	< 0.00439
B2	0.0151 ± 0.002
B3	< 0.00204
B4	0.00257 ± 0.00029
B5	0.0346 ± 0.03
B6	0.105 ± 0.14
B7	0.00448 ± 0.0015
B8	0.664 ± 0.56
B9	0.0138 ± 0.013
B10	0.00659 ± 0.0057

Source: the supplement of paper PMC11876631
